Laboratory results reported in the supplement of paper PMC3334620.
In all, about 33,000 sequences were measured (“E-score (-0.5 to 0.5)”: median about -0.041, highest 2% from about 0.37 on). The list shows a part of the results.

Target: T1, Ecm22 (UniProt Q05958)
T1 sequence: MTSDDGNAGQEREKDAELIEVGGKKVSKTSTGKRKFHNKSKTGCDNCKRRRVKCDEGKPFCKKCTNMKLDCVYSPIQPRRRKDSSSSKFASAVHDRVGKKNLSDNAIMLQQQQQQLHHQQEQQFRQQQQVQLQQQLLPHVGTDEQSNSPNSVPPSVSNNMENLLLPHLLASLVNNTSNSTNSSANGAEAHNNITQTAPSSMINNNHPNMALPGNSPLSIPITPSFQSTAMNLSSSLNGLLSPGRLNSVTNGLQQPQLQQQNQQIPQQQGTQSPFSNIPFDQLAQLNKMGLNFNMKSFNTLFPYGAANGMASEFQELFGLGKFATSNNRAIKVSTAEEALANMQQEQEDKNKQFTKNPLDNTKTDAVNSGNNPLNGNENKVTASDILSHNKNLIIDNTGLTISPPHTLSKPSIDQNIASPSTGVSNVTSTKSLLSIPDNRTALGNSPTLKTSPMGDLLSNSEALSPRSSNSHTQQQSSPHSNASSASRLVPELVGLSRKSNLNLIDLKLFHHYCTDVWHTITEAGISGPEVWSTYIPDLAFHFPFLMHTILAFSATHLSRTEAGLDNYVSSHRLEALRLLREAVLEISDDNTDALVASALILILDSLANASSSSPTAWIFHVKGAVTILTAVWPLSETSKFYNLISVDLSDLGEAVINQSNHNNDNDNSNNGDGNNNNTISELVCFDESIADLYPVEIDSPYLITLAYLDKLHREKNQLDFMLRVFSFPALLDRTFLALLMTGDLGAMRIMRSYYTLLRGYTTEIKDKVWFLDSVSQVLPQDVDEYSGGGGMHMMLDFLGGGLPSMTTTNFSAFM
Test: PBM E-score (8-mer binding enrichment) (E-score (-0.5 to 0.5)); higher = stronger / more preferred TF binding; most listed sequences are background and not binding sites
Details: protein concentration: 200 nM; construct: GST-full length
Summary of the method: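 Yeast transcription factors, full-length or as DNA-binding domains, were expressed with a GST tag using PURExpress in vitro transcription/translation. At about 100-200 nM they were applied to universal all-10-mer Agilent arrays, double-stranded by primer extension on fresh or once-stripped slides. Fluorescent anti-GST detected bound protein, and masliner normalised the scans. E-scores for ungapped eight-base words, pooled with reverse complements, came from the Universal PBM Analysis Suite.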

Row | Sequence | PBM E-score
1 | CCTTATTC | -0.125
2 | GGCCCAAC | -0.13
3 | ACCACATG | -0.0253
4 | CCGGAACA | -0.0629
5 | GCTCTGAC | -0.213
6 | TAAATGAA | -0.0696
7 | ACCCCGTC | -0.165
8 | ACTTAGGC | -0.248
9 | CTGCCAAC | -0.0937
10 | AGTTAAAC | 0.194
11 | AACCATGC | -0.138
12 | AAAGTCAA | -0.177
13 | ACGGCCAG | -0.0436
14 | GGATGGAC | -0.0459
15 | CATTCTGA | -0.0836
16 | ACAGTTCA | 0.0913
17 | ATCACTGC | 0.051
18 | CGCCTCCA | -0.134
19 | CCTCCCGA | -0.00453
20 | CTACCCGC | -0.164
21 | TCACTGGA | -0.31
22 | GAACGATC | 0.432

Row | Sequence | PBM E-score
23 | GTCTGTAA | -0.0348
24 | CACCCTAA | -0.116
25 | GCGCTCAA | -0.0981
26 | CTCGACTC | 0.0837
27 | ATGGTAAG | -0.178
28 | GAAATTCC | -0.182
29 | ACCTACAA | -0.0896
30 | ACAGGTAC | 0.168
31 | TATCAGGA | 0.118
32 | AACGCGCC | 0.126
33 | AAATAGTT | -0.0664
34 | CAAACATC | -0.00603
35 | GCGGACGC | -0.104
36 | CCCATTGC | -0.141
37 | CCATATGG | 0.0188
38 | AAGCAGGA | -0.0106
39 | GGCCTTAA | -0.165
40 | TCTGCCAA | -0.123
41 | GGGCTGTA | -0.108
42 | TACCGGTA | 0.0548
43 | AATGCGGA | 0.0872
44 | AGACGATA | 0.143

Row | Sequence | PBM E-score
45 | AACCAAGT | 0.0954
46 | CTGAGTCA | -0.123
47 | ATGAGAGA | -0.0934
48 | ATGTGACC | -0.0819
49 | CCCCCAGC | -0.27
50 | CATACCGA | 0.107
51 | AGACCTGC | -0.304
52 | AGTCTGCC | -0.238
53 | AACCGAAA | 0.235
54 | AAGACTTA | -0.135
55 | CGACTGGA | 0.137
56 | GGTCCCAA | -0.153
57 | CCTGGTCA | -0.311
58 | CACGCATG | -0.167
59 | AGATCGTG | -0.0112
60 | AAGGCCCA | -0.237
61 | AATCATCT | -0.222
62 | CACGGCGG | -0.16
63 | ACCTATCA | -0.109
64 | AAGATAAG | -0.146
65 | ACCTAGTA | -0.257
66 | TTCTGCAA | 0.0702

Row | Sequence | PBM E-score
67 | ATACGCAT | 0.301
68 | ATATGCTC | 0.0994
69 | GTTAGCTA | -0.115
70 | GTTAAGCA | -0.0308
71 | CCGGAATA | -0.0385
72 | ATCAAATG | 0.00866
73 | GCAGACAC | 0.0272
74 | AGAATGCA | 0.11
75 | CGGCATGC | 0.12
76 | ACTAGGGG | -0.24
77 | TGCCTACA | -0.0971
78 | CGTCGTGC | 0.177
79 | AGGTATAA | 0.211
80 | GCGGGGAC | -0.152
81 | GTGGTTAA | 0.00113
82 | AATGTAAA | -0.0309
83 | AAGTGTCG | 0.11
84 | CGTCGGTC | 0.296
85 | TACTTCCA | 0.0583
86 | ATCCACAC | -0.129
